The data set deals with the molecule itself. In words: ThT fluorescence; recombinant tau with 5% or 15% (protein mass) lysate of Tau4RD*LM-YFP cells propagating CBD or PSP tau, 20 mM HEPES pH 7.4, 37 °C, 24 h, 20 µM ThT, no cofactor.

B1: cysless Tau187 P301L (domain or fragment)
chain: not shown
notes: numbers count on: the longest tau isoform, 2N4R (441 residues); In the assays it stood as monomer at the start and as fibrils at the end; also called recombinant Tau187; unlabeled Tau187; source: E. coli BL21 (DE3), purified (heat step, Ni-NTA, SEC; monomer fractions)
For B1, the binding result was “binds”.

(Values after paper doi:10.1101/2023.07.19.549721, “Passaging Human Tauopathy Patient Samples in Cells Generates Heterogeneous Fibrils with a Subpopulation Adopting Disease Folds” (bioRxiv, 2023).)
